Legend:
[1] = target: T1, Human CD123 on stably transfected CHO-K1 cells (CHO-CD123) (human, UniProt P26951 19-378); test: target cell binding, compared with 12F1
T1 construct: whole, on cells; also called IL-3 receptor alpha subunit; cell surface CD123
T1 sequence (looked up): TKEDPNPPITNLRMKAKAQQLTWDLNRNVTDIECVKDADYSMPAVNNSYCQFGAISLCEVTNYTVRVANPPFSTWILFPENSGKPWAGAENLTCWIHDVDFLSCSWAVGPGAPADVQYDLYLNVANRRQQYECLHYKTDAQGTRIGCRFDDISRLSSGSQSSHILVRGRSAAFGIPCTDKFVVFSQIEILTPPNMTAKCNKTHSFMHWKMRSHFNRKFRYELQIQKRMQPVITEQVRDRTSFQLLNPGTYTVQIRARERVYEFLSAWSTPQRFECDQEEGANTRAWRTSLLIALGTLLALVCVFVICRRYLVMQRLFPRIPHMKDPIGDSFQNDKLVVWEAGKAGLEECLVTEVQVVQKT
Description: One day prior to the experiment, 5×10⁴ CHO-K1 or CHO-CD123 cells were seeded in each well of a flat-bottom 96-well plate. The next day, cells were washed with PBS and fixed with 3% formaldehyde in PBS at room temperature for 10 minutes. Fixed cells were washed thrice with PBS containing 0.5% Tween-20 (PBST) and incubated in Blocking Solution (PBS with 10% goat serum) for 30 minutes. A titration of 12F1, 12F1scFv-Fc or CD123xCD3 BIf was then added at room temperature for 60 minutes, followed by washing with PBST and then 45 minutes incubation with HRP-conjugated anti-mouse or anti-human secondary antibodies (Jackson Lab) at room temperature. The HRP activity was detected by HRP substrate (R&D) for 10 minutes and stopped by 0.5N H₂SO₄. The plates were read by a plate reader set at 450 nm.
(§1) For antigen on monolayer cultured cells (CHO-CD123), cell-based enzyme-linked immunosorbent assay (CELISA, see above) was used to evaluate binding affinities (Kuo et al, 2009). […] For suspension cultured cells, flow cytometry was used to measure binding affinities.
The abilities of 12F1scFv-Fc and CD123xCD3 BIf to bind cell surface CD123 were examined by flow cytometry using CHO-K1 and CHO-CD123. 12F1 murine monoclonal antibody was used as a positive control. […] The binding affinities were tested in cell-based ELISA with CHO-CD123 cells.

CD3 on Jurkat T cells [2] = target: T2, CD3 on Jurkat T cells (UniProt P07766; P09693; P04234); test: flow cytometry titration on Jurkat T cells, compared with UCHT1
T2 construct: whole, on cells; The assay used Jurkat T cells; also called T-cell surface CD3
Description: (§2) FIG. 3A-3C. T-cell surface binding of CD123xCD3 BIf. Binding of 1 μg/ml of (A) CD123xCD3 BIf; and (B) UCHT1 to Jurkat T cells was analyzed by flow cytometry with PE-conjugated secondary antibodies. The dotted histogram represented the reaction with human IgG1 control. The y-axis represented cell counts. (C) Serials titrations of UCHT1 (square) and CD123xCD3 BIf (triangle) were used in flow cytometric analysis with Jurkat T cells. The mean X-axis values were plotted versus protein concentrations for Kd analysis.
as §1
(§3) Jurkat T cells were used to test CD123xCD3 BIf's abilities to recruit T cells. […] This reduced T cell binding affinity would help to prevent non-specific T-cell activation.

CD3 on Jurkat T cells [3] = target: T2, CD3 on Jurkat T cells; test: flow cytometry titration on Jurkat T cells; Kd = concentration at 50% of maximal mean X-axis value
Description: as §2, §1, §3

T2 sequence (P07766 23-207, chain 1 of 3): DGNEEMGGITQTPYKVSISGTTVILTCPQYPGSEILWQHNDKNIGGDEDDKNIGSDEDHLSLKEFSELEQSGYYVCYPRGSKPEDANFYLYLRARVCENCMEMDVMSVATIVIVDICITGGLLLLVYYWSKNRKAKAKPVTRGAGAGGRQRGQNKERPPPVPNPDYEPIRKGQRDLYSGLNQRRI
T2 sequence (P09693 23-182, chain 2 of 3, further chain): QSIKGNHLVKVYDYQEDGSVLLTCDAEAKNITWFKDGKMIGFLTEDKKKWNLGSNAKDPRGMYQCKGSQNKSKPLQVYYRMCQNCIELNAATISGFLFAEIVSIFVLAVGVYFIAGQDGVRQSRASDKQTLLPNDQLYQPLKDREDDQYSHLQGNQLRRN
T2 sequence (P04234 22-171, chain 3 of 3, further chain): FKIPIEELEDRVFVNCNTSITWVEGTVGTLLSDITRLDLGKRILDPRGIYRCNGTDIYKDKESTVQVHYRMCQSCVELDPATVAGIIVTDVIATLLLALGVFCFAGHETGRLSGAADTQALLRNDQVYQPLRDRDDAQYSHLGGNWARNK

B1: CD123xCD3 BIf (bispecific scFv immunofusion) (bispecific antibody)
chain: DIMMSQSPSSLAVSVGEKFTMTCKSSQSLFFGSTQKNYLAWYQQKPGQSPKLLIYWASTRESGVPDRFTGSGSGTDFTLAISSVMPEDLAVYYCQQYYNYPWTFGGGTKLEIKGSTSGSGKPGSGEGSTKGVQLQESGPGLVKPSQSLSLTCSVTDYSITSGYYWNWIRQFPGNKLEWMGYISYDGSNNYNPSLKNRISITRDTSKNQFFLKLSSVTTEDTATYYCSRGEGFYFDSWGQGTTLTVSSARS[letters of human IgG1 Fc left out]PWDIQMTQTTSSLSASLGDRVTISCRASQDIRNYLNWYQQKPDGTVKLLIYYTSRLHSGVPSKFSGSGSGTDYSLTISNLEQEDIATYFCQQGNTLPWTFAGGTKLEIKGSTSGSGKPGSGEGSTKGEVQLQQSGPELVKPGASMKISCKASGYSFTGYTMNWVKQSHGKNLEWMGLINPYKGVSTYNQKFKDKATFTVDKSSSTAYMELLSLTSEDSAVYYCARSGYYGDSDWYFDVWGAGTTVTVSS
notes: also called CD123xCD3 bispecific immunoglobulin
B1 was tested, and the “fold lower target cell binding affinity than parental antibody 12F1” value [1] was about 5 times lower, the “Kd relative to UCHT1” value (CD3 on Jurkat T cells [2]) was 2 orders (of magnitude) higher and the Kd (CD3 on Jurkat T cells [3]) was 10 nM.

From patent publication US20180222996A1 (SCOTT AND WHITE HEALTHCARE SWH, published 2018)
